# Laboratory results published in the supplement of paper PMC9446081.
# The whole screen tested about 39,000 compounds, of which about 220 (0.56%) showed activity. The list shows a part of the results.
# System: Escherichia coli K-12 BW25113
# Experiment: relative growth (OD600 normalised to plate interquartile mean) (fraction); higher = less growth inhibition, active = 0.2 or less
# Conditions: 50 µM; LB; incubation time: overnight (16-24 h)
# 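Also: static incubation at 37 °C against the wild-type strain, values averaged over two biological replicates.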
row,SMILES,relative growth
1,O=C(C[C@H]1CC[C@@H]2[C@H](COC[C@H](O)CN2C(=O)c2cnccn2)O1)N1CCN(c2ccccc2)CC1,inactive: 1
2,NCC[C@H]1CC[C@H](NC(=O)C2CC2)[C@@H](CO)O1,inactive: 0.992
3,O=C(C[C@@H]1CC[C@H]2[C@@H](COC[C@@H](O)CN2S(=O)(=O)c2ccc(F)cc2)O1)N[C@H]1CCN(Cc2ccccc2)C1,inactive: 0.98
4,CCOc1ccc(N2C(=O)/C(=C/C=C/c3ccccc3OC)S(=O)(=O)[C@@H]2c2cccc([N+](=O)[O-])c2)cc1,inactive: 1.03
5,C[C@H](CO)N1C[C@H](C)[C@@H](CN(C)Cc2ccc(C(F)(F)F)cc2)Oc2ccc(NC(=O)C3CCCCC3)cc2C1=O,inactive: 0.994
6,CO[C@@H]1CN(C)C(=O)c2ccc(NS(C)(=O)=O)cc2OC[C@@H](C)N(S(C)(=O)=O)C[C@H]1C,inactive: 1.03
7,C=CCOC(=O)[C@H]1[C@@H]2C(=O)O[C@@H](c3ccccc3)[C@@H](c3ccccc3)N2[C@@H](c2ccc(OCCOC(=O)[C@H]3C[C@H]4C(=O)N[C@@H](CCCCNC(C)=O)C(=O)N4[C@H]3c3ccc(O)cc3)cc2)[C@]12C(=O)Nc1ccc(I)cc12,inactive: 1.03
8,C[C@@H]1CN([C@@H](C)CO)C(=O)c2cccc(NC(=O)c3nc4ccccc4s3)c2O[C@@H]1CN(C)C(=O)Nc1ccc(F)cc1,inactive: 0.982
9,CN1CCN(C(=O)C[C@@H]2CC[C@H]3[C@@H](COC[C@H](O)CN3C(=O)C3CCOCC3)O2)CC1,inactive: 1.02
10,COCC#Cc1ccc2c(c1)O[C@H](CN(C)C(=O)c1ccccc1)[C@@H](C)CN([C@H](C)CO)S2(=O)=O,inactive: 0.998
11,COc1ccccc1OC[C@@H](O)CO,inactive: 0.867
12,CC(C)C[N+]1(C)Cc2ccccc2C1,inactive: 1.01
13,CCC(=O)OC1(C(=O)SCF)C(C)CC2C3CC(F)C4=CC(=O)C=CC4(C)C3(F)C(O)CC21C (stereo unspecified),inactive: 0.971
14,C[C@@H]1CN([C@@H](C)CO)C(=O)c2cc(NS(=O)(=O)c3cccs3)ccc2O[C@@H](C)CCCCO[C@@H]1CN(C)C(=O)Nc1ccc(F)cc1,inactive: 1.02
15,C[C@H]1CCCCO[C@H](CN(C)C(=O)Nc2ccccc2)[C@@H](C)CN([C@@H](C)CO)C(=O)c2cc(NC(=O)Nc3ccc(C(F)(F)F)cc3)ccc2O1,inactive: 1.06
16,COc1cc(OC)nc(N=CNO)n1,inactive: 1.02
17,CC(C)NC(=O)N(C)C[C@H]1OCc2cn(nn2)CCCC(=O)N([C@@H](C)CO)C[C@H]1C,inactive: 0.977
18,Cc1ccc(S(=O)(=O)N2C[C@H](O)COC[C@@H]3O[C@@H](CC(=O)N[C@H]4CCN(Cc5ccccc5)C4)CC[C@H]32)cc1,inactive: 0.97
19,OCc1ccc(O)cc1,inactive: 1
20,C/C=C/c1cccc(-c2nc(C(=O)NCc3cccc(OC)c3)cc3c2[C@H](CCO)N([S@@](=O)C(C)(C)C)C3)c1,inactive: 1.01
21,O=P(O)(O)CN(CCN(CP(=O)(O)O)CP(=O)(O)O)CP(=O)(O)O,inactive: 0.926

row,SMILES,relative growth
1,C[C@H]1CN([C@@H](C)CO)C(=O)c2cc(NC(=O)Nc3ccc(F)cc3)ccc2O[C@H]1CN(C)C(=O)Nc1cccc2ccccc12,inactive: 0.957
2,O=S(=O)(c1c[nH]c2ncccc12)N1CC(S(=O)(=O)N2CCOCC2)C1,inactive: 0.987
3,COc1ccc(NC(=O)N(C)C[C@@H]2Oc3ccc(NS(=O)(=O)c4c(C)noc4C)cc3CC(=O)N([C@H](C)CO)C[C@H]2C)cc1,inactive: 1.02
4,Cc1noc(C)c1NC(=O)N(C)C[C@@H]1OCCCC[C@H](C)Oc2ccc(NS(=O)(=O)c3ccc(Cl)cc3)cc2C(=O)N([C@@H](C)CO)C[C@@H]1C,inactive: 0.973
5,Cc1oc(=O)oc1CN1CCN(c2cc3c(cc2F)c(=O)c(C(=O)O)c2n3C(C)S2)CC1 (stereo unspecified),active: 0.0438
6,C#CCN(O[C@@H](/C=C/[C@@H](O)Cc1ccccc1)C1CC1)[C@@H](Cc1ccc(-n2cc(CCC(=O)NO)nn2)cc1)C(=O)OC,inactive: 0.995
7,C[C@@H]1CCCCO[C@@H](CN(C)S(=O)(=O)c2ccc(F)cc2)[C@@H](C)CN([C@H](C)CO)C(=O)c2cc(NC(=O)Cc3ccccc3)ccc2O1,inactive: 0.998
8,CCCCCCOc1cccc(N)c1,inactive: 0.974
9,C[C@@H]1CCCCO[C@@H](CN(C)C(=O)Nc2ccc3c(c2)OCO3)[C@@H](C)CN([C@H](C)CO)C(=O)c2cc(NC(=O)Cc3ccccc3)ccc2O1,inactive: 0.972
10,CC[C@@H](O[Si](C#C[Si](C(C)C)(C(C)C)C(C)C)(C(C)C)C(C)C)c1cn(Cc2cccc(Cl)c2)nn1,inactive: 1.01
11,COc1ccc(NC(=O)Nc2ccc3c(c2)C(=O)N([C@H](C)CO)C[C@H](C)[C@@H](CN(C)S(=O)(=O)c2ccc(OC)cc2)OCCCC[C@@H](C)O3)cc1,inactive: 1.04
12,N#CCNC(=O)Cc1ccccc1,inactive: 0.984
13,COCC#Cc1ccc2c(c1)O[C@H](CN(C)C(=O)COC)[C@H](C)CN([C@@H](C)CO)S2(=O)=O,inactive: 1.01
14,COc1ccc(cc1)CN1CC[C@]2(CC1)CN([C@@H](CO)c1[nH]c3cc(ccc3c12)OC)C(=O)CN(C)C,inactive: 0.977
15,CC(COc1ccccc1)N(CCCl)Cc1ccccc1.Cl (stereo unspecified),inactive: 1.02
16,CC(C)(CO)Nc1ncnc(N)c1[N+](=O)[O-],inactive: 0.998
17,COc1cccc(NC(=O)N(C)C[C@@H]2Oc3cc(C#Cc4ccncc4)ccc3S(=O)(=O)N([C@H](C)CO)C[C@@H]2C)c1,inactive: 0.986
18,CCC(CC)C(=O)N1c2ccccc2Sc2ccccc21,inactive: 1.01
19,COc1ccc(NC(=O)Nc2ccc3c(c2)C(=O)N([C@H](C)CO)C[C@H](C)[C@H](CN(C)S(=O)(=O)c2cccs2)OCCCC[C@H](C)O3)cc1,inactive: 1.06
20,C[C@H](CO)N1C[C@H](C)[C@H](CN(C)C(=O)NC2CCCCC2)OCCCC[C@H](C)Oc2ccc(NS(=O)(=O)c3ccc(F)cc3)cc2C1=O,inactive: 0.999
21,O=C(C[C@H]1C=C[C@H](NC(=O)CN2CCOCC2)[C@H](CO)O1)NCCc1ccncc1,inactive: 0.975

row,SMILES,relative growth
1,C[C@@H]1CCCCO[C@H](CN(C)Cc2ccc(Cl)c(Cl)c2)[C@@H](C)CN([C@H](C)CO)C(=O)c2cc(NS(=O)(=O)c3cccs3)ccc2O1,inactive: 1.01
2,C[C@@H]1CN([C@H](C)CO)C(=O)c2cc(NS(=O)(=O)c3ccc(Cl)cc3)ccc2O[C@@H]1CN(C)C(=O)Nc1cccc2ccccc12,inactive: 1.01
3,Cc1cc(S(=O)(=O)N2CCCO[C@@H]2CNC(=O)C(=O)NCc2ccncc2)ccc1F,inactive: 0.984
4,COc1ccc(NC(=O)N(C)C[C@H]2Oc3ncc(C#C[C@@H](C)O)cc3C(=O)N([C@@H](C)CO)C[C@@H]2C)cc1,inactive: 1.01
5,C[C@@H]1CN([C@@H](C)CO)C(=O)c2cc(NC(=O)NC3CCCCC3)ccc2O[C@@H](C)CCCCO[C@@H]1CN(C)Cc1ccccc1,inactive: 1.01
6,Cc1noc(C)c1NC(=O)Nc1ccc2c(c1)C(=O)N([C@@H](C)CO)C[C@@H](C)[C@@H](CN(C)C(=O)Nc1cccc3ccccc13)O2,inactive: 1.01
7,Cc1noc(C)c1S(=O)(=O)Nc1ccc2c(c1)CC(=O)N([C@H](C)CO)C[C@@H](C)[C@@H](CN(C)CC1CC1)O2,inactive: 0.955
8,COCCOC(=O)N1C(=O)[C@@]2(c3cc(C#CCCO)ccc31)[C@H](C(=O)NC[C@H](O)c1ccccc1)[C@H]1C(=O)O[C@H](c3ccccc3)[C@H](c3ccccc3)N1[C@@H]2c1ccccc1OCCO,inactive: 0.973
9,COc1ccc(NC(=O)Nc2ccc3c(c2)C(=O)N([C@H](C)CO)C[C@H](C)[C@@H](CN(C)S(=O)(=O)c2ccc(Cl)cc2)OCCCC[C@@H](C)O3)cc1,inactive: 1.03
10,COc1ccc(NC(=O)Nc2ccc3c(c2)C(=O)N([C@@H](C)CO)C[C@H](C)[C@@H](CN(C)CC2CCCCC2)OCCCC[C@H](C)O3)cc1,inactive: 0.984
11,C[C@H](CO)N1C[C@H](C)[C@H](CN(C)S(=O)(=O)c2cn(C)cn2)OCc2cn(nn2)CCCC1=O,inactive: 0.955
12,CCCNC(=O)N1C[C@]2(CN(C2)S(=O)(=O)c2ccccc2)c2c(n(c3cc(ccc23)OC)C)[C@H]1CO,inactive: 1.01
13,Cc1noc(C)c1NC(=O)N(C)C[C@@H]1OCCCC[C@@H](C)Oc2ccc(NC(=O)CCC(F)(F)F)cc2C(=O)N([C@@H](C)CO)C[C@H]1C,inactive: 1
14,C[C@@H]1CCCCO[C@@H](CN(C)S(=O)(=O)c2cn(C)cn2)[C@@H](C)CN([C@@H](C)CO)C(=O)c2cc(N(C)C)ccc2O1,inactive: 0.959
15,C[C@H](CO)N1C[C@H](C)[C@@H](CN(C)S(=O)(=O)c2ccccc2)OCCCC[C@H](C)Oc2ccc(NC(=O)Nc3ccc4c(c3)OCO4)cc2C1=O,inactive: 1.01
16,Cc1noc(C)c1NC(=O)Nc1ccc2c(c1)CC(=O)N([C@H](C)CO)C[C@@H](C)[C@@H](CN(C)S(=O)(=O)c1c(C)noc1C)O2,inactive: 0.979
17,C[C@@H]1CN([C@H](C)CO)C(=O)c2cccc(NS(=O)(=O)c3ccccc3)c2O[C@H]1CN(C)C(=O)Nc1cccc2ccccc12,inactive: 0.987
18,Nc1ccccc1C(=O)C[C@H](N)C(=O)O,inactive: 0.992
19,COCCc1ccc(OCC(O)CNC(C)C)cc1.O=C(O)C(O)C(O)C(=O)O (stereo unspecified),inactive: 1.17
